# Assay results as given in PubChem BioAssay AID588855 (National Center for Advancing Translational Sciences (NCATS), 2011).
# About 5,000 (1.2%) of roughly 410,000 compounds were called active. The shares of active, inactive and inconclusive entries below differ from those in the screen. Calls follow the shape of the dose curve; as a rule, active = well fitted inhibition curve with a large enough effect; inconclusive = small, poorly fitted or top-dose-only effect; inactive = no such curve, though single readings can be large or run the other way. Where the call is inconclusive, the potency comes from a doubtful curve fit.
# Experiment: qHTS for Inhibitors of TGF-b; also: nearly all actives have a fitted effect of over 65% in size
# Settings: HepG2 CAGA-GFP TGF-b/SMAD3 reporter, GFP fluorescence, 18 h, TGF-beta stimulated, 500 pg/mL final; series mostly up to 46.1 µM; activity, negative = inhibition: at the top concentration
# Summary of the method: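 Per well, imaged GFP fluorescence of HEPG2 CAGA-GFP cells gives the signal; cells get compound, then TGF-beta (500 pg/mL final), 18 h at 37 degrees C; %Activity versus -TGF-beta and +DMSO controls.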
# % is scaled to controls: 0 for no effect and ±100 for the full control effect; potency is read from the fitted curve at half-maximal effect; tags tell the direction and shape of the fitted curve.
Structure (SMILES),"activity, negative = inhibition",Potency
Cn1c(=O)c(Cc2ccccc2)c(O)c2ccccc21,inactive: 1.63%,
COc1ccc(CC2(CO)CCN(C(C)Cc3ccc(Cl)cc3)CC2)cc1 (stereo not given),,"inconclusive: 12.6 µM [inhibitor, single point]"
Cc1nc(NC(=O)C23CC4CC(CC(C4)C2)C3)sc1Cc1ccc2c(c1)OCO2,,"inconclusive: 3.16 µM [inhibitor, partial curve, poor fit]"
Cc1cccc(C)c1OCC(=O)Nc1nonc1-c1ccc(Br)cc1,,"inconclusive: 14.1 µM [inhibitor, partial curve, poor fit]"
CC(CCc1ccccc1)NC(=O)c1ccccc1 (stereo not given),,"inconclusive: 3.16 µM [inhibitor, single point]"
COc1ccc(CCNC(=O)Cc2c(C)c3cc(OC)c(OC)cc3oc2=O)cc1,inactive: -2.22%,
CCN(CC)CC(=O)c1c[nH]c2ccccc12,,"inconclusive: 3.16 µM [inhibitor, single point]"
COc1ccccc1N1CSC2=C(C#N)C(c3ccc(SC)cc3)CC(=O)N2C1 (stereo not given),inactive: -9.26%,
CCCCn1c(=S)[nH]c2cc(S(=O)(=O)N3CCCCC3)ccc21,,"inconclusive: 10 µM [inhibitor, partial curve, poor fit]"
CCCc1cc(NC(=O)CCl)n(-c2ccccc2)n1,,"inconclusive: 35.5 µM [inhibitor, single point]"
COc1ccccc1N(C)S(=O)(=O)c1ccc(C(=O)N(CC(N)=O)C(C)C)cc1,,"inconclusive: 1.26 µM [inhibitor, partial curve, poor fit]"
Cc1cc2cc(C)c(NCCNC(=O)c3ccccc3Cl)nc2cc1C,,"inconclusive: 35.5 µM [inhibitor, single point]"
C/C(O)=C(\C#N)c1nnc2n1CCCCC2,inactive: -0.339%,
O=C(COC(=O)c1ccc2c(c1[N+](=O)[O-])C(=O)c1ccccc1C2=O)NC1CC1,,active: 17.8 µM
COc1cc(OC)c(C2=NOC(C(=O)NCc3cccs3)C2)cc1Cl (stereo not given),inactive: -7.1%,
O=C(O)c1cccc(-c2nnn(Cc3ccccc3Cl)n2)c1,inactive: 3.63%,
C/C(=N\NC(=S)NCCc1ccccc1)c1ccc(Cl)cc1Cl,,"inconclusive: 25.1 µM [inhibitor, single point]"
CCOc1ccc(-n2nc(CO)c(C(=O)NCc3ccc(Cl)cc3)n2)cc1,inactive: 0%,
CC1CCN(C(=O)CSc2c3c(nc4cc(Cl)ccc24)CCCC3)CC1,,"inconclusive: 0.112 µM [inhibitor, full curve, poor fit]"
Cc1ccc(-c2nnc(SCCOc3ccccc3)o2)cc1,,"inconclusive: 35.5 µM [inhibitor, partial curve, poor fit]"
C[C@@]12C(=O)Nc3cc(Cl)ccc3C(=O)N1[C@H]1c3cc(Cl)ccc3OC[C@@H]1[C@@H]2c1ccccc1,,"inconclusive: 11.2 µM [inhibitor, single point]"
CCOc1cc(C=O)cc(Cl)c1OCC(N)=O,inactive: 7.26%,
COc1ccc(Br)c2c1-c1nc(NC(=O)c3cccc(C)c3)sc1C2,,"inconclusive: 3.55 µM [inhibitor, full curve, poor fit]"

Structure (SMILES),"activity, negative = inhibition",Potency
c1ccc(-c2oc3ncnc(NCCCn4ccnc4)c3c2-c2ccccc2)cc1,,"inconclusive: 35.5 µM [inhibitor, single point]"
Cc1cccc(C)c1OCC(=O)Nc1oc(-c2ccccc2)c(-c2ccccc2)c1C#N,,active: 12.6 µM
CC(C)OC(=O)c1cc2c(ccn2C)n1CC(=O)N(Cc1ccccc1)c1ccccc1,,"inconclusive: 35.5 µM [inhibitor, single point]"
Cc1cc(C)cc(OCC(=O)N(Cc2ccccc2)C2CCS(=O)(=O)C2)c1 (stereo not given),,"inconclusive: 31.6 µM [inhibitor, single point]"
COc1ccc2cc(C(=O)c3ccccc3)c(=O)oc2c1,inactive: -1.61%,
O=C(NC1CCCC1)C(c1ccsc1)N(Cc1ccco1)C(=O)Cc1cccs1 (stereo not given),,"inconclusive: 15.8 µM [inhibitor, single point]"
Cc1cccc(C)c1NC(=O)c1nc(S(=O)(=O)Cc2ccccc2)ncc1Cl,,active: 11.2 µM
CCOc1ccc(CCN2C(=O)C(=O)N([C@@H](CC(C)C)CN3CCC[C@@H]3CN3C(=O)C(=O)NC[C@@H]3CC(C)C)C[C@@H]2Cc2ccccc2)cc1,,active: 20 µM
CC1(OC(=O)CCc2ccccc2)C(=O)C=C2C=C(c3ccc(C#N)cc3)N(C3CCCCC3)C=C2C1=O (stereo not given),inactive: -14.3%,
Brc1ccc(-c2ccc(CNCCSc3nnnn3-c3ccccc3)o2)cc1,,"inconclusive: 35.5 µM [inhibitor, single point]"
CCn1c(CC(=O)Nc2cccc(OC)c2)nnc1SCC(=O)N1CCN(c2ccccc2)CC1,inactive: -25.1%,
Cc1nnsc1S(=O)c1ccc(Cl)c(Cl)c1 (stereo not given),inactive: 7.77%,
C[C@@H](C(=O)Nc1ccc2ccccc2c1)[C@@H]1C[C@@]1(C)[C@@H](NC(=O)OCc1ccccc1)c1ccccc1,,"inconclusive: 20 µM [inhibitor, single point]"
Cc1[nH]c2ccccc2c1C(=O)/C=C/c1ccccc1Cl,inactive: 4.46%,
Cc1ccc(CN(C(=O)c2cc(=O)c3cc(Cl)c(C)cc3o2)C2CCS(=O)(=O)C2)cc1 (stereo not given),,"inconclusive: 35.5 µM [inhibitor, single point]"
CCC(Sc1nc2cc(OC)c(OC)cc2c(=O)n1Cc1ccc(Cl)cc1)C(=O)NCCOC (stereo not given),inactive: 3.02%,
Clc1ccccc1NCSC1=NCCS1,inactive: 10.2%,
Cc1nn(C)cc1/C=C/C(=O)c1ccccc1,inactive: 25.8%,
CCOC(=O)c1c(C)[nH]c(C(=O)OC(C)C(=O)Nc2ccccc2OC)c1C (stereo not given),,"inconclusive: 7.08 µM [inhibitor, full curve]"
Cc1ccc(C)c(Cn2c3ccccc3c3cnn(CC(=O)NCCCN4CCOCC4)c(=O)c32)c1,,"inconclusive: 28.2 µM [inhibitor, partial curve, poor fit]"
COc1cc2c(cc1OC)C1=NC(=O)CN1C(SCc1ccc(C)cc1)=N2,,"inconclusive: 0.708 µM [inhibitor, full curve, poor fit]"
CCOc1ccc(-c2nc3c(c(SCC(=O)N4CCCCC4)n2)Cc2cc(C)ccc2O3)cc1,inactive: 3.82%,
